Experimental data taken from the supplement of paper PMC11417369.
± gives the standard deviation of the averaged measurements. This is one part of the list.

These sequences were tested on PfAP2-G AP2 domain (GST-tagged) (assay: gcPBM binding intensity (ln(normalized median fluorescence intensity)); higher = stronger DNA binding).
How it was run: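 Probes on an Agilent 4 × 180k array were primer-extended, double-stranded and 36 bp long, taken from intergenic genomic regions, with negative controls added. GST-tagged P. falciparum DNA-binding domains from E. coli, about 25 μg on average, were applied to the array for 1 h in 1× PBS containing 1% milk, 0.2 mg/ml BSA, 0.5% salmon testes DNA and 0.03% Triton X-100. Binding intensity, obtained after Alexa488 anti-GST antibody detection and a 488 nm scan, is the highest Masliner-normalised natural-log median intensity across replicate spots of either probe orientation.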

Row | Sequence | gcPBM binding intensity (ln)
1 | AAAAAAAGAATGTGAACACACACATTGAATATAATT [CACACA_site8341] | 9.98 ± 0.14
2 | AATTATTTACCCTATACACACAAAACCCACTAAAAA [CACACA_site4801] | 10.6 ± 0.46
3 | TTTGTAAGTCTTTGTTGTACTCAATAGAATGAAGAA [XGTACX_site8930] | 11.5 ± 1.1
4 | ATAGGACATGTATCCAGTACATATTTAAAAAAAATA [XGTACX_site88] | 10.9 ± 0.57
5 | GCATATATCAAATATCGTACATTTTTTAAATTAAAA [XGTACX_site3994] | 10.7 ± 0.54
6 | ATAAAATCAAAATATACACACAAGGGGGAAAATCAA [CACACA_site2809] | 10.6 ± 0.54
7 | TTTTCTTTTTTTTATTGTACTTATAAAAATAAATAA [XGTACX_site3498] | 11.4 ± 1
8 | TTTCATTTTTGAAGGTGTACTTAAAATTTATGTAAT [XGTACX_site6671] | 11.5 ± 1.1
9 | AAAATTTATTATCTATATAATAATATGAAACAAAAC [GTGCAC_negctrl_site731] | 9.925 ± 0.049
10 | CATTATAAGAGACACACACACATATATAAATATGTA [CACACA_site6621] | 10.01 ± 0.014
11 | AGTAAGAGGCATTAAGCATGCATATTATTATAAGCA [TGCATGCA_site237] | 9.46 ± 0.29
12 | TATTTAAAACTATACACATGCATTATATAAAGATAT [TGCATGCA_site702] | 10 ± 0.13
13 | CTCATTTTGTTAATGGTGCAAAAAAAAAAAAAAAAA | 10.1 ± 0.66
14 | ATGAAAAAAAGACATGCATGTAAATATAAATTGCTT [TGCATGCA_site504] | 9.82 ± 0.24
15 | AATCAACATTTTTTTTGCTATTTTTTTTTTTAATTA [CACACA_negctrl_site891] | 9.49 ± 0.34
16 | TTATAAAATATATATACATGCACAAAATTATAAGTA [TGCATGCA_site294] | 10.1 ± 0.3
17 | AAAAAAACATAAAATACACACAACCTTAAGAATGTA [CACACA_site3293] | 9.895 ± 0.064
18 | ATATATTTCATTTTTGTACACACAACGTTGGAGGGT [CACACA_site8999] | 11.3 ± 0.73
19 | AAAAAAAAAATATATATATATATATAATATATATAT [TGCATGCA_negctrl_site329] | 9.82 ± 0.72
20 | ATATAGGTAATAATAATACACACGGTGAAATATAGA [CACACA_site4040] | 10 ± 0.13
21 | AAAAACTAACTGTATTGTACTCTCTTATAAATTCAC [XGTACX_site8967] | 11.1 ± 0.7
22 | TAAAAAAAAGGAAATACATGCATCTACATATATATA [TGCATGCA_site500] | 9.77 ± 0.042

Row | Sequence | gcPBM binding intensity (ln)
23 | GACAATATTAAAACATGTACATGCATTTTATGAATA [XGTACX_site553] | 11.2 ± 0.78
24 | TATAATATAAAATATGCACACATTGGAATGGGAGAA [CACACA_site3746] | 10.2 ± 0.26
25 | TATTGTAAAGTGTCATTATTACGTTATATTATATAT [CACACA_negctrl_site98] | 10.01 ± 0.021
26 | AAAATGTTAAATATTAAATATGAAACAAAAAAAAAA [GTGCAC_negctrl_site211] | 9.885 ± 0.092
27 | GTATGATGTGAACATTGTACGAATGAATATATCTAA [XGTACX_site3789] | 10.8 ± 0.55
28 | ATATAAGTATACACATGTACATATTTCTTATGTATA [XGTACX_site2854] | 11.2 ± 0.61
29 | TATAAAGACACGTACACACACTAAGTATATCCAATA [CACACA_site6855] | 11.6 ± 1.2
30 | AAAAAATTTATAAAAGCACACAAAATAAAAAAAAAT [CACACA_site8420] | 10.2 ± 0.29
31 | ATAAGAAATTTCATACGTACATAAATAAATATATAT [XGTACX_site2932] | 11.5 ± 0.92
32 | TATAATTTAAAATACACACACATATATATAATATAT [CACACA_site2000] | 9.95 ± 0.042
33 | TAAATACATTTATATACACACCTATATATATATATA [CACACA_site5137] | 10 ± 0.29
34 | TCCAAATGAAAAAATTGTACATATTTTATCATATAT [XGTACX_site6159] | 11 ± 0.56
35 | GGTAGATTATTATTAACGAAAAATGTTTTTAACATA [GTGCAC_negctrl_site216] | 9.66 ± 0.11
36 | CATATTTTGAACTTCACACATATATATATATATATA [CACACA_site4228] | 10.3 ± 0.54
37 | TGTATATATAAAAATATACACACTGTATTATTGTAA [CACACA_site3757] | 9.88
38 | CCTTTCTATTGAAAATGTACATATATATTATTATAT [XGTACX_site5527] | 11.1 ± 0.71
39 | AATAATTGTAGACATGCACACACAAATATTATATAT [CACACA_site8181] | 10.2 ± 0.19
40 | AATAATTGTTATAGTTGTACAATACATATATTACAA [XGTACX_site30] | 11.3 ± 0.63
41 | TATGTTTACATATACGTGCACATGAATGTATACATT [GTGCAC_site9894] | 10.4 ± 0.22
42 | ACAAATTGTTAAAGGTGTACAATACATATATAAGAA [XGTACX_site4906] | 11.4 ± 0.79
43 | TTTAGCACAAACAAAAAAAAAATAGAAAAAAATATA [CACACA_negctrl_site1772] | 9.705 ± 0.007
44 | AATATATATACTTTTTTTTTTTTTTTTTTTTTTTTT [CACACA_negctrl_site520] | 11 ± 0.47
